# From the supplement of paper PMC8728848
# The other results are listed elsewhere or left out.
# B1: MpL2 (Macrolepiota procera) (protein)
# chain: MSTQVSSGQTYKITNVKAGTVIRLSGEDNKSIIGYPYHSGKNQQWTFNWTGKAWTLRSASSGSYLGIEGTPADGTRLVAVNDPFEWHIWRDEANENAFRIFVPFTNYNLDLSGYGDTTPGTPVQLWWTWEGLHQTWTIDRP
# Assays:
# Assay in all cases: glycan array binding signal (z-score within array); higher = stronger binding
# Conditions in all cases: glycan notation: IUPAC condensed, linker removed; mutation: D22R
# [1] = biological target: Fuc(a1-2)[GalNAc(b1-3)]Gal
# In short: (§1)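 Negative Z-scores can be read as non-binding. The Z-score is calculated within each array and then averaged across arrays of one protein sequence at different concentrations or buffers and across linkers. Arrays, 3228 in all, were curated from the Consortium for Functional Glycomics database and kept only where the protein sequence was available.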
# Fuc(a1-3)GlcNAc = biological target: Fuc(a1-3)GlcNAc
# In short: as §1
# [2] = biological target: Fuc(a1-3)[Gal(b1-4)]Glc6S
# In short: as §1
# [3] = biological target: Fuc(a1-3)[Gal(b1-4)]GlcNAc
# In short: as §1
# [4] = biological target: Fuc(a1-3)[Gal(b1-4)]GlcNAc(b1-2)Man
# In short: as §1
# [5] = biological target: Fuc(a1-3)[Gal(b1-4)]GlcNAc(b1-2)Man(a1-3)[Fuc(a1-3)[Gal(b1-4)]GlcNAc(b1-2)Man(a1-6)]Man(b1-4)GlcNAc(b1-4)GlcNAc
# In short: as §1
# [6] = biological target: Fuc(a1-3)[Gal(b1-4)]GlcNAc(b1-2)Man(a1-3)[Fuc(a1-3)[Gal(b1-4)]GlcNAc(b1-2)Man(a1-6)]Man(b1-4)GlcNAc(b1-4)[Fuc(a1-6)]GlcNAc
# In short: as §1
# [7] = biological target: Fuc(a1-3)[Gal(b1-4)]GlcNAc(b1-3)Gal(b1-3)[Fuc(a1-4)]GlcNAc
# In short: as §1
# [8] = biological target: Fuc(a1-3)[Gal(b1-4)]GlcNAc(b1-3)Gal(b1-4)[Fuc(a1-3)]GlcNAc
# In short: as §1
# [9] = biological target: Fuc(a1-3)[Gal(b1-4)]GlcNAc(b1-3)Gal(b1-4)[Fuc(a1-3)]GlcNAc(b1-3)Gal(b1-4)[Fuc(a1-3)]GlcNAc
# In short: as §1
# [10] = biological target: Fuc(a1-3)[Gal(b1-4)]GlcNAc(b1-3)GalNAc
# In short: as §1
# [11] = biological target: Fuc(a1-3)[Gal(b1-4)]GlcNAc(b1-6)GalNAc
# In short: as §1
# [12] = biological target: Fuc(a1-3)[Gal(b1-4)]GlcNAc(b1-6)[Gal(b1-3)GlcNAc(b1-3)]Gal(b1-4)Glc
# In short: as §1
# [13] = biological target: Fuc(a1-3)[Gal(b1-4)]GlcNAc6S
# In short: as §1
# [14] = biological target: Fuc(a1-3)[Gal3S(b1-4)]Glc
# In short: as §1
# [15] = biological target: Fuc(a1-3)[Gal3S(b1-4)]GlcNAc
# In short: as §1
# [16] = biological target: Fuc(a1-3)[Gal3S(b1-4)]GlcNAc6S
# In short: as §1
# [17] = biological target: Fuc(a1-3)[GalNAc(b1-4)]GlcNAc
# In short: as §1
# [18] = biological target: Fuc(a1-3)[GalNAc(b1-4)]GlcNAc6S
# In short: as §1
# Fuc(a1-4)GlcNAc = biological target: Fuc(a1-4)GlcNAc
# In short: as §1
# Fuc(b1-3)GlcNAc = biological target: Fuc(b1-3)GlcNAc
# In short: as §1
# Gal(a1-2)Gal = biological target: Gal(a1-2)Gal
# In short: as §1
# Gal(a1-3)Gal = biological target: Gal(a1-3)Gal
# In short: as §1
# Gal(a1-3)Gal(b1-3)GlcNAc = biological target: Gal(a1-3)Gal(b1-3)GlcNAc
# In short: as §1
# [19] = biological target: Gal(a1-3)Gal(b1-3)GlcNAc(b1-2)Man
# In short: as §1
# [20] = biological target: Gal(a1-3)Gal(b1-3)GlcNAc(b1-2)Man(a1-3)[Gal(a1-3)Gal(b1-3)GlcNAc(b1-2)Man(a1-6)]Man(b1-4)GlcNAc(b1-4)GlcNAc
# In short: as §1
# [21] = biological target: Gal(a1-3)Gal(b1-3)GlcNAc(b1-3)GalNAc
# In short: as §1
# [22] = biological target: Gal(a1-3)Gal(b1-3)GlcNAc(b1-6)GalNAc
# In short: as §1
# [23] = biological target: Gal(a1-3)Gal(b1-3)[Fuc(a1-4)]GlcNAc(b1-2)Man(a1-3)[Gal(a1-3)Gal(b1-3)[Fuc(a1-4)]GlcNAc(b1-2)Man(a1-6)]Man(b1-4)GlcNAc(b1-4)GlcNAc
# In short: as §1
# Gal(a1-3)Gal(b1-4)Glc = biological target: Gal(a1-3)Gal(b1-4)Glc
# In short: as §1
# Gal(a1-3)Gal(b1-4)GlcNAc = biological target: Gal(a1-3)Gal(b1-4)GlcNAc
# In short: as §1
# [24] = biological target: Gal(a1-3)Gal(b1-4)GlcNAc(b1-2)Man
# In short: as §1
# [25] = biological target: Gal(a1-3)Gal(b1-4)GlcNAc(b1-2)Man(a1-3)[Gal(a1-3)Gal(b1-4)GlcNAc(b1-2)Man(a1-6)]Man(b1-4)GlcNAc(b1-4)GlcNAc
# In short: as §1
# [26] = biological target: Gal(a1-3)Gal(b1-4)GlcNAc(b1-3)GalNAc
# In short: as §1
# [27] = biological target: Gal(a1-3)Gal(b1-4)GlcNAc(b1-6)GalNAc
# In short: as §1
# [28] = biological target: Gal(a1-3)Gal(b1-4)[Fuc(a1-3)]GlcNAc
# In short: as §1
# [29] = biological target: Gal(a1-3)Gal(b1-4)[Fuc(a1-3)]GlcNAc(b1-2)Man(a1-3)[Gal(a1-3)Gal(b1-4)[Fuc(a1-3)]GlcNAc(b1-2)Man(a1-6)]Man(b1-4)GlcNAc(b1-4)GlcNAc
# In short: as §1
# Gal(a1-3)GalNAc = biological target: Gal(a1-3)GalNAc
# In short: as §1
# [30] = biological target: Gal(a1-3)[Gal(a1-4)]Gal(b1-4)GlcNAc
# In short: as §1
# [31] = biological target: Gal(a1-4)Gal(b1-3)GlcNAc(b1-2)Man(a1-3)[Gal(a1-4)Gal(b1-3)GlcNAc(b1-2)Man(a1-6)]Man(b1-4)GlcNAc(b1-4)GlcNAc
# In short: as §1
# Gal(a1-4)Gal(b1-4)Glc = biological target: Gal(a1-4)Gal(b1-4)Glc
# In short: as §1
# Gal(a1-4)Gal(b1-4)GlcNAc = biological target: Gal(a1-4)Gal(b1-4)GlcNAc
# In short: as §1
# [32] = biological target: Gal(a1-4)Gal(b1-4)GlcNAc(b1-2)Man(a1-3)[Gal(a1-4)Gal(b1-4)GlcNAc(b1-2)Man(a1-6)]Man(b1-4)GlcNAc(b1-4)GlcNAc
# In short: as §1
# [33] = biological target: Gal(a1-4)Gal(b1-4)GlcNAc(b1-3)Gal(b1-4)Glc
# In short: as §1
# Gal(a1-4)GlcNAc = biological target: Gal(a1-4)GlcNAc
# In short: as §1
binder,measurement,setting,value
B1,glycan array binding signal (z-score),[1],0.206
same,glycan array binding signal (z-score),Fuc(a1-3)GlcNAc,-0.513
same,glycan array binding signal (z-score),[2],0.526
same,glycan array binding signal (z-score),[3],-0.381
same,glycan array binding signal (z-score),[4],-0.547
same,glycan array binding signal (z-score),[5],-0.601
same,glycan array binding signal (z-score),[6],0.991
same,glycan array binding signal (z-score),[7],-0.401
same,glycan array binding signal (z-score),[8],0.151
same,glycan array binding signal (z-score),[9],-0.696
same,glycan array binding signal (z-score),[10],-0.14
same,glycan array binding signal (z-score),[11],0.321
same,glycan array binding signal (z-score),[12],-1.01
same,glycan array binding signal (z-score),[13],0.212
same,glycan array binding signal (z-score),[14],-0.082
same,glycan array binding signal (z-score),[15],-0.059
same,glycan array binding signal (z-score),[16],0.155
same,glycan array binding signal (z-score),[17],0.027
same,glycan array binding signal (z-score),[18],0.229
same,glycan array binding signal (z-score),Fuc(a1-4)GlcNAc,-0.067
same,glycan array binding signal (z-score),Fuc(b1-3)GlcNAc,-0.328
same,glycan array binding signal (z-score),Gal(a1-2)Gal,-0.294
same,glycan array binding signal (z-score),Gal(a1-3)Gal,0.246
same,glycan array binding signal (z-score),Gal(a1-3)Gal(b1-3)GlcNAc,-0.238
same,glycan array binding signal (z-score),[19],-0.023
same,glycan array binding signal (z-score),[20],0.627
same,glycan array binding signal (z-score),[21],-0.19
same,glycan array binding signal (z-score),[22],-0.565
same,glycan array binding signal (z-score),[23],0.972
same,glycan array binding signal (z-score),Gal(a1-3)Gal(b1-4)Glc,-0.146
same,glycan array binding signal (z-score),Gal(a1-3)Gal(b1-4)GlcNAc,-0.256
same,glycan array binding signal (z-score),[24],-0.446
same,glycan array binding signal (z-score),[25],-0.178
same,glycan array binding signal (z-score),[26],-0.431
same,glycan array binding signal (z-score),[27],-0.928
same,glycan array binding signal (z-score),[28],-0.367
same,glycan array binding signal (z-score),[29],0.356
same,glycan array binding signal (z-score),Gal(a1-3)GalNAc,-0.386
same,glycan array binding signal (z-score),[30],-0.129
same,glycan array binding signal (z-score),[31],0.111
same,glycan array binding signal (z-score),Gal(a1-4)Gal(b1-4)Glc,-0.34
same,glycan array binding signal (z-score),Gal(a1-4)Gal(b1-4)GlcNAc,-0.051
same,glycan array binding signal (z-score),[32],0.974
same,glycan array binding signal (z-score),[33],-2.13
same,glycan array binding signal (z-score),Gal(a1-4)GlcNAc,-0.467
